# Laboratory results taken from the supplement of paper PMC10986608.
# The list shows a part of the results. Many values rest on one well or one pass, so single values are uncertain.
# Tested on: Candida albicans DPL-15
# Test: growth (OD600) after compound treatment (apparently relative to screen median) (relative growth (fraction; screen median 1.02)); DPL-15 is a caspofungin-resistant clinical isolate; higher = more fungal growth (less antifungal activity)
# Details: 25 µM; RPMI 1640; 48 h; 30 °C
row,Compound,growth
1,COC(=O)c1cc(CCCC(=O)NCc2ccc(OC)cc2)c(C(=O)OC)nn1,1.07
2,CC(=O)Oc1cc(O)c2c(C)cc(O)c3c2c1COC3=O,1.02
3,COc1ccc(N2C(=O)C3=C(C(C(C)C)=NCC(C)(C)N3)C2c2cccc(C(F)(F)F)c2)cc1 (stereo unspecified),1.05
4,CC(C)C(=O)C1CC2(CCCCC2)OC2=C1C(=O)C(C)(C)C(=O)C2(C)C (stereo unspecified),0.996
5,COC(=O)C/C=C/[C@H](C)[C@H](NC(=O)C(F)(F)F)C1CC1,0.974
6,CC(C)=CCc1cc(OCc2nn[nH]n2)cc2oc3cccc(O)c3c(=O)c12,1.01
7,COC(=O)C1=C(C)N(CCc2cccs2)C(NCCc2cccs2)=NC1c1ccccc1 (stereo unspecified),1.15
8,C[C@H]1COc2c(N3CCN(C)CC3)c(F)cc3c(=O)c(C(=O)NCc4ccco4)cn1c23,0.935
9,Cc1ccccc1S(=O)(=O)N1CCCc2nc(C)c(C)cc21,0.982
10,CO[C@@H]1[C@H](O)CC[C@]2(O)CN(C3CCN(Cc4ccccc4)CC3)[C@@H](CC=C(C)C)[C@](C)(O)[C@@H]12,1.31
11,COC1=C2C(=O)c3c(O)cc(C)cc3O[C@@]2(C)[C@H](O)CC1,1.13
12,CC(C)C(=O)Cc1cc(O)cc(O)c1C(=O)N(C)Cc1ccccc1,1.07
13,COC(=O)c1nnc(C(C)=O)c2c3ccccc3n(Cc3ccccc3)c12,1.08
14,CC(C)Cc1n[nH]c2c1C(c1ccc(F)cc1)N(c1ccc(S(N)(=O)=O)cc1)C2=O (stereo unspecified),1.12
15,C[C@@H]1C=CCCO[C@]12C(=O)N(CC1CC1)c1cccc(Br)c12,1.02
16,COc1ccc([C@]23Oc4cc(OC)cc(OC)c4[C@@]2(O)c2nc(-c4cccc(OC)c4)[nH]c(=O)c2[C@@H]3c2ccccc2)cc1,0.883
17,CC(=O)O[C@@H]1C=C[C@@H](C#Cc2ccc(C(C)(C)C)cc2)O[C@@H]1COC(=O)Nc1ccccc1,1.03
18,Cc1ccc(C2NC(=O)c3nn(C)c(C(C)C)c32)cc1 (stereo unspecified),1.12
19,COc1cccc(Oc2cc(Cl)ccc2C(=O)O)c1OCc1ccccc1,0.977
20,OC[C@H]1O[C@H](c2ccccc2)C=C[C@@H]1OCc1cccc(Br)c1,1.09
21,COC(=O)N1C(c2ccccc2)=Cc2ccccc2C1CC(C)=O (stereo unspecified),1.04

row,Compound,growth
1,CCCc1ccc(C(=O)[C@H]2[C@@H](O)[C@@]3(O)c4c(OC)cc(OC)cc4O[C@@]3(c3ccc(OC)cc3)[C@@H]2c2ccccc2)o1,1.02
2,COc1ccccc1Cn1nc(C)c2c1C(=O)NC2c1ccc2c(c1)OCO2 (stereo unspecified),0.852
3,C#Cc1cc(OC)cc(OC)c1-c1cc(OC)ccc1OS(=O)(=O)C(F)(F)F,1.1
4,COc1cccc(C2NC(=S)N(Cc3ccc(F)cc3)C(C)=C2C(C)=O)c1 (stereo unspecified),1.05
5,CC1(C)CNC(=O)[C@@H]2C[C@@H](O)CN2C(=O)c2cccc(c2)-c2[nH]ncc2C1,1.26
6,COc1ccc(N2C(=O)c3[nH]nc(CC(C)C)c3C2c2ccc(F)c(C)n2)cc1 (stereo unspecified),1.23
7,COC(=O)Cc1nnn2c1[C@H](C)[C@@H](OC)c1ccccc1-2,0.985
8,CCCCCNS(N)(=O)=O,1.22
9,COC(=O)[C@@]12Oc3cccc(O)c3C(=O)C1=C(OC)CC[C@H]2O,1.05
10,COc1cccc(C(CC2=CCCCC2)NC(=O)C(F)(F)F)c1 (stereo unspecified),0.994
11,COc1ccc(N2C(=O)C3=C(C(c4ccccc4)=NCC(C)(C)N3)C2c2cccc(C(F)(F)F)c2)cc1 (stereo unspecified),1.03
12,Cc1ccc(C2c3c(CC(C)C)nn(C)c3C(=O)N2Cc2ccccc2)cc1 (stereo unspecified),0.966
13,CCCC#Cc1c(OC)ccc(OC)c1C(=O)NC,1.24
14,COc1ccc(N2C(=O)C3=C(C(CC(C)C)=NCCN3C)C2c2ccc(Br)cc2)cc1 (stereo unspecified),0.994
15,CCN(CC)CCCN1C[C@@]2(O)CC[C@@H](O)[C@@H](OC)[C@@H]2[C@@](C)(O)[C@@H]1CC=C(C)C,1.12
16,CC1=C[C@H]2c3c(c(O)c(O)c4oc5ccccc5c(=O)c34)[C@H](c3cc(O)c(O)c4oc5ccccc5c(=O)c34)[C@H]2C(C)(C)C1,active: 0.0836
17,COc1ccc(C(=O)Nc2ccc(CCN3CCc4cc(OC)c(OC)cc4C3)cc2)c([N+](=O)[O-])c1,1.08
18,Cc1ccc(S(=O)(=O)N2CCCc3nc(-c4ccccc4)ccc32)cc1,0.967
19,COc1cc(OC)c2c(=O)c(O)c(-c3ccc(Br)cc3)n(C)c2c1,active: 0.0563
20,COCc1n[nH]c2c1C(c1ccc3c(c1)OCO3)N(Cc1ccccc1)C2=O (stereo unspecified),0.901
